Laboratory results as given in PubChem BioAssay AID1745853 (National Center for Advancing Translational Sciences (NCATS), 2022).
The other results are listed elsewhere or left out. Further columns of the screen follow, without active or inactive calls.

Tests used:
Test in all cases: Primary Screen for Target Class Profiling of Small Molecule Inhibitors of Methyltransferases
[1] = target: Glycine N-methyltransferase (Homo sapiens) (UniProt Q14749); details: purified enzyme, MTase-Glo SAH luminescence; measured here: GNMT inhibition; at 40 µM; stronger effect = lower value
Procedure, shortened: (§1)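 Each enzyme was assayed with SAM and its substrate. SAH formation detected by MTase-Glo luminescence; single-point 40 uM screen[…].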

[2] = target: Guanidinoacetate N-methyltransferase (Homo sapiens) (UniProt Q14353); details: purified enzyme, MTase-Glo SAH luminescence; measured here: GAMT inhibition; at 40 µM; stronger effect = lower value
Procedure, shortened: as §1

[3] = target: Histamine N-methyltransferase (Homo sapiens) (UniProt P50135); details: purified enzyme, MTase-Glo SAH luminescence; measured here: HNMT inhibition; at 40 µM; stronger effect = lower value
Procedure, shortened: as §1

[4] = target: Nicotinamide N-methyltransferase (Homo sapiens) (UniProt P40261); details: purified enzyme, MTase-Glo SAH luminescence; measured here: NNMT inhibition; at 40 µM; stronger effect = lower value
Procedure, shortened: as §1

[5] = target: Phenylethanolamine N-methyltransferase (Homo sapiens) (UniProt P11086); details: purified enzyme, MTase-Glo SAH luminescence; measured here: PNMT inhibition; at 40 µM; stronger effect = lower value
Procedure, shortened: as §1
% is set by controls: 0 for no effect and ±100 for the full control effect.

Row | SMILES | activity change, negative = inhibition [1] | activity change, negative = inhibition [2] | activity change, negative = inhibition [3] | activity change, negative = inhibition [4] | activity change, negative = inhibition [5]
1 | COC(O)(CC(C)C)C1Oc2cc(C)[nH]c(=O)c2O1 (configuration not stated) | 3.92% | 7.04% | 4.37% | -7.84% | 6.87%
2 | CCN1CCN(C(=O)c2cc3n(n2)CC(C)(C(=O)NCc2ccc(F)cc2)N(C)C3=O)CC1 (configuration not stated) | 1.66% | 4.34% | -2.95% | 4.72% | 1.88%
3 | CN(C(=O)CCS(=O)(=O)c1ccccc1)C1CCc2nn(C)c(=O)n2CC1 (configuration not stated) | -2.3% | 0.186% | 1.58% | -3.12% | -1.17%
4 | CCOC(=O)N1CCC2(CC1)N=C(CCC(C)C)NC2=O | 7.5% | 4.35% | 3.18% | -2.06% | 12.9%
5 | CC(C)Cn1c(=O)c2ccccc2n2c(CCC(=O)NC3CCC(C)CC3)nnc12 (configuration not stated) | -4.23% | 1.4% | 6.24% | 2.93% | -3.02%
6 | COc1ccccc1CC(=O)N1CCC(n2nccc2NC(=O)c2ccccc2C)CC1 | 0.389% | -0.34% | 2.71% | -1.22% | 2.32%
7 | CCOC(=O)c1cc2n(n1)CC(C)(C(=O)NCCCOC)N(c1ccc(CC)cc1)C2=O (configuration not stated) | 7.13% | 0% | 7.98% | 8.25% | 6.9%
8 | CC1CCCC(NC(=O)C2(C)Cn3c(cc4occc43)C(=O)N2Cc2ccc(F)cc2)C1C (configuration not stated) | -4.86% | 3.17% | 4.37% | -5.75% | -1.1%
9 | CCn1c(N)c(C(=O)NC)c(=O)c2ccc(C#CC(C)(O)COC)nc21 (configuration not stated) | -17.1% | – | -5.58% | – | –
10 | CCC(C)/C=C(C)/C=C/C1=CC2=C(Cl)C(=O)C(C)(OC(C)=O)C(=O)C2(O)C(OC)O1 (configuration not stated) | -0.95% | 5.01% | 7.7% | -8.57% | 4.59%
11 | CC1(C(=O)NC2CCCCCC2)Cn2c(cc3ccccc32)C(=O)N1Cc1ccccc1 (configuration not stated) | 3.59% | 0% | 2.49% | -1.54% | -1.38%
12 | CCOC(=O)c1cc2n(n1)CC(C)(C(=O)NCCOC)N(c1cc(C)cc(C)c1)C2=O (configuration not stated) | 5.46% | 0% | 8.48% | 5.62% | 3.08%
13 | Cc1cccc(CCNC(=O)CCc2nnc3n(Cc4ccc(F)cc4)c(=O)c4ccccc4n23)c1 | -12.5% | 3.39% | -9.7% | -21.9% | -5.34%
14 | Cc1ccc(C2=NC3(CCN(C(=O)c4cnccn4)CC3)ON2)cc1 | -3.35% | -2.9% | -1.42% | -8.91% | -2.15%
15 | Cc1ccc([S+](=O)([O-])NC2CCN(Cc3ccc(-c4ccsc4)cc3)C2)cc1 (configuration not stated) | -10.7% | -8.41% | -8.79% | -19.7% | -26.6%
16 | CCc1cc(NCC(c2ccc(C)o2)N2CCOCC2)n2nccc2n1 (configuration not stated) | -0.619% | 4.33% | 2.26% | -4.39% | -8.95%
17 | CN1CCc2nc(C(=O)N[C@@H]3C[C@@H](C(=O)N(C)C)CC[C@@H]3NC(=O)C(=O)Nc3ccc(Cl)cn3)sc2C1 | -3.83% | -5.39% | 4.57% | -18.3% | 0.02%
18 | COC1C(=O)N(C2CCN(C(=O)C3CC3)CC2)C12CCOCC2 (configuration not stated) | 0.221% | 0.112% | -0.583% | 1.85% | 2.36%
19 | O=[S+]1([O-])NC2(CCN(Cc3ccncc3)CC2)CNc2ccccc21 | -2.83% | 1.27% | -0.437% | -5.84% | -2.71%
20 | CCCCNC(=O)c1ccc2c(=O)nc3c(-c4ccc(F)cc4)n[nH]n3c2c1 | -1.6% | -0.599% | -2.74% | -3.95% | -6.75%
